From the supplement of paper PMC11880418 come the findings set out here.

Where a name gives a salt, the structure may show the parent alone. The list shows a part of the results. The data scatter; read single values as rough.

What all share (experiment): ALDHbr (CSC) cell proportion score relative to DMSO vehicle (ratio to DMSO); breast (SUM159) / gastric (MKN45) / pancreatic (PANC1) / colon cancer lines; ALDHbr cells have high ALDH activity and are rich in cancer stem cells (CSC); higher = more CSC (ALDHbr) cells remaining
What all share (conditions): 10 µM; 72 h

In experiment [1] the test system is MKN45.
Experiment [2] concerns PANC1.
Experiment [3] has as its system SUM159.
Experiment [4] has as its system T84.
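Note: High-content imaging of ALDEFLUOR-stained cells with Hoechst-labelled nuclei in 384-well plates, triplicate wells, scored as Z-score against 0.1% DMSO vehicle, negative meaning fewer ALDHbr cells.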

As for `CN1[C@@H]2C[C@@H](OC(=O)[C@H](CO)c3ccccc3)C[C@H]1[C@@H]1O[C@@H]12` [Scopolamine hydrochloride], the ALDHbr in experiment [1] was 1.24; in experiment [2], 0.924; in experiment [3], 1.09; in experiment [4] it was 1.05.

For `CN[C@@H]1C[C@@H](c2ccc(Cl)c(Cl)c2)c2ccccc21` [Indatraline hydrochloride], the ALDHbr in experiment [1] is 1.68; in experiment [2] it was 1.56; in experiment [3], 0.562; in experiment [4], 0.284.

With `CC1C=CC=CCCC=CC=CC=CC=CC(OC2OC(C)C(O)C(N)C2O)CC2OC(O)(CC(O)C(O)CCC(O)CC(O)CC(O)CC(=O)OC(C)C(C)C1O)CC(O)C2C(=O)O` (configuration not stated) [Nystatine], the ALDHbr in experiment [1] was determined as 1.08; in experiment [2], 0.856; in experiment [3], 0.997; in experiment [4], 1.12.

As for `CC(C)(C)NCC(O)c1cc(Cl)c(N)c(Cl)c1` (configuration not stated) [Clenbuterol hydrochloride], the ALDHbr turned out to be 1.03 in experiment [1], 0.828 in experiment [2], 2.2 in experiment [3] and 0.964 in experiment [4].

`O=c1[nH]oc2c1CCNC2` [THIP Hydrochloride]: the ALDHbr in experiment [1] came out at 1.14; in experiment [2], 0.964; in experiment [3], 1.01; in experiment [4], 1.1.

As to `c1ccc2c(c1)OCC(C1=NCCN1)O2` (configuration not stated) [Idazoxan hydrochloride], the ALDHbr in experiment [1] was 0.989; in experiment [2] it was 0.805; in experiment [3] it was 1.13; in experiment [4] it was 0.67.

For the molecule `C[N+]1(C)CCOC(O)(c2ccc(-c3ccc(C4(O)C[N+](C)(C)CCO4)cc3)cc2)C1` (configuration not stated) [Hemicholinium bromide], the ALDHbr is 1.02 in experiment [1], 1.05 in experiment [2], 0.903 in experiment [3] and 0.974 in experiment [4].

As for `C[N+](C)(C)CCCCCCCCCC[N+](C)(C)C` [Decamethonium bromide], the ALDHbr in experiment [1] was found to be 0.954; in experiment [2] it was 1.12; in experiment [3], 0.975; in experiment [4], 1.11.

Turning to `OC(c1ccccc1)(c1ccccc1)C1CCNCC1` [Azacyclonol], the ALDHbr in experiment [1] was found to be 1.13; in experiment [2] it was 0.882; in experiment [3], 0.773; in experiment [4], 1.03.

Turning to `CC(Cc1ccc(O)cc1)NCC(O)c1cc(O)cc(O)c1` (configuration not stated) [Fenoterol hydrobromide], the ALDHbr in experiment [1] stood at 1.01; in experiment [2] it was 0.743; in experiment [3] it was 1.91; in experiment [4] it was 0.935.

In the case of `COc1ccc(CN2CCNCC2)c(OC)c1OC` [Trimetazidine dihydrochloride], the ALDHbr is 0.922 in experiment [1], 0.915 in experiment [2], 0.884 in experiment [3] and 0.938 in experiment [4].

On to `CN1[C@@H]2CC[C@H]1C[C@@H](OC1c3ccccc3CCc3ccccc31)C2` [Deptropine citrate], for which the ALDHbr turned out to be 0.971 in experiment [1], 1.16 in experiment [2], 0.877 in experiment [3] and 0.268 in experiment [4].

Regarding `O=C(CCCN1CCC(n2c(=O)[nH]c3ccccc32)CC1)c1ccc(F)cc1` [Benperidol], the ALDHbr was determined as 1.17 in experiment [1], 0.796 in experiment [2], 1.49 in experiment [3] and 0.719 in experiment [4].

In the case of `CCN(C)C(=O)Oc1cccc([C@H](C)N(C)C)c1` [Rivastigmine], the ALDHbr is 1.2 in experiment [1], 0.886 in experiment [2], 1 in experiment [3] and 0.976 in experiment [4].

On to `CCN(C(C)=O)c1cccc(-c2ccnc3c(C#N)cnn23)c1` [Zaleplon], for which the ALDHbr was 1.01 in experiment [1], 0.853 in experiment [2], 0.869 in experiment [3] and 0.788 in experiment [4].

Turning to `CC(C)c1cccc(C(C)C)c1O` [Propofol], the ALDHbr in experiment [1] was 0.925; in experiment [2], 0.907; in experiment [3], 0.995; in experiment [4], 0.93.

As for `C[C@@H]1CC[C@H]2[C@@H](C)C(=O)O[C@@H]3O[C@@]4(C)CC[C@@H]1[C@]32OO4` [Artemisinin], the ALDHbr in experiment [1] was found to be 0.786; in experiment [2] it was 1.05; in experiment [3], 0.574; in experiment [4], 0.817.

As for `CN(C)C(=O)Oc1cccc([N+](C)(C)C)c1` [Neostigmine bromide], the ALDHbr in experiment [1] turned out to be 1.09; in experiment [2] it was 0.98; in experiment [3] it was 1.08; in experiment [4] it was 0.933.

As to `CC(NC(C)(C)C)C(=O)c1cccc(Cl)c1` (configuration not stated) [Bupropion hydrochloride], the ALDHbr in experiment [1] turned out to be 1.02; in experiment [2] it was 0.893; in experiment [3] it was 1.03; in experiment [4], 0.947.

Consider `Fc1ccc(C(OCCN2CCN(CCCc3ccccc3)CC2)c2ccc(F)cc2)cc1`, for which the ALDHbr in experiment [1] turned out to be 0.268; in experiment [2] it was 0.487; in experiment [3], 0.58; in experiment [4] it was 0.401.

For the molecule `O=C1CC[C@@]2(O)[C@H]3Cc4ccc(O)c5c4[C@@]2(CCN3CC2CC2)[C@H]1O5` [Naltrexone hydrochloride dihydrate], the ALDHbr turned out to be 0.935 in experiment [1], 0.941 in experiment [2], 1.11 in experiment [3] and 0.981 in experiment [4].

Consider `C#C[C@]1(O)CC[C@H]2[C@@H]3CCC4=CC(=O)CCC4=C3C=C[C@@]21CC` [Gestrinone], for which the ALDHbr in experiment [1] stood at 0.788; in experiment [2], 0.694; in experiment [3], 0.548; in experiment [4] it was 0.778.

As to `CCCN1C[C@H](CSC)C[C@@H]2c3cccc4[nH]cc(c34)C[C@H]21` [Pergolide mesylate], the ALDHbr in experiment [1] worked out at 1.09; in experiment [2], 0.701; in experiment [3], 0.874; in experiment [4], 0.812.

Turning to `COC[C@@H](NC(C)=O)C(=O)NCc1ccccc1` [Lacosamide], the ALDHbr in experiment [1] worked out at 0.978; in experiment [2], 0.916; in experiment [3] it was 0.98; in experiment [4] it was 0.886.

As for `c1ccc2c(c1)Nc1ccccc1S2` [Phenothiazine], the ALDHbr in experiment [1] was found to be 0.974; in experiment [2], 0.999; in experiment [3], 1.35; in experiment [4], 0.884.

In the case of `CC(CCc1ccccc1)NC(C)C(O)c1ccc(O)cc1` (configuration not stated) [Nylidrin], the ALDHbr in experiment [1] worked out at 1.12; in experiment [2] it was 0.959; in experiment [3], 2.14; in experiment [4], 0.889.

With `CN1[C@@H]2CC[C@H]1C[C@@H](OC(=O)[C@H](CO)c1ccccc1)C2` [Hyoscyamine (L)], the ALDHbr came to 1.11 in experiment [1], 1.07 in experiment [2], 1.06 in experiment [3] and 1.21 in experiment [4].

On to `CCN[C@@H](C)Cc1cccc(C(F)(F)F)c1` [Dexfenfluramine hydrochloride], for which the ALDHbr came out at 1.07 in experiment [1], 0.894 in experiment [2], 1.88 in experiment [3] and 1.01 in experiment [4].
